For this assay, the target named is Genome polyprotein (dengue virus type 2) (UniProt P29990).
The mark [1] stands for this setting: Thailand/16681/1984, Concentration 25.0 uM, Number of replicates 1.0.

Molecules are shown by their SMILES. Hit rate of the full screen: of about 2,000 compounds, about 110 (5.5%) showed an effect of 50% or more. The list shows a part of the results.

A word on the inhibition: it is the change of the read-out against control, counted positive when it falls. With `Cc1cnccc1NC(=O)c1cc(C#N)n(C)c1C`, the inhibition runs as follows: (Thailand/16681/1984, Concentration 49.5 uM, Number of replicates 2.0, Standard deviation 1.7932303086690136 %) -2.73%; (Thailand/16681/1984, Concentration 99.01 uM, Number of replicates 2.0, Standard deviation 1.8848942250899017 %) -2.4%; (Thailand/16681/1984, Concentration 198.0 uM, Number of replicates 2.0, Standard deviation 3.3866692139435313 %) -1.63%.

With `CNC(=O)c1ccccc1NC(=O)C1CCN(c2ccc(C=O)cc2)CC1`, the inhibition under setting [1] was -5.29%.

Take `CCn1ccnc(N2CC[C@H](c3ccc(C#N)cc3)C2)c1=O`: the inhibition worked out at 8.12% (Thailand/16681/1984, Concentration 49.5 uM, Number of replicates 2.0, Standard deviation 0.7276744432598639 %); 17.1% (Thailand/16681/1984, Concentration 99.01 uM, Number of replicates 2.0, Standard deviation 0.49854124686905393 %); 32.1% (Thailand/16681/1984, Concentration 198.0 uM, Number of replicates 2.0, Standard deviation 0.36791973396409117 %).

For the compound `CCCOc1ccc(NC(=O)C2CCN(c3ccc(C=O)cc3)CC2)cc1`, the inhibition under setting [1] was found to be 0.636%.

Turning to `CCn1ccnc(N2CC[C@H](c3c[nH]c4ccccc34)C2)c1=O`, the inhibition came out at 7.74% (Thailand/16681/1984, Concentration 49.5 uM, Number of replicates 2.0, Standard deviation 0.7663200687712609 %); 15.6% (Thailand/16681/1984, Concentration 99.01 uM, Number of replicates 2.0, Standard deviation 0.5205284148002172 %); 29.9% (Thailand/16681/1984, Concentration 198.0 uM, Number of replicates 2.0, Standard deviation 1.2986233015210575 %).

With `Cc1cn[nH]c1-c1nn(C)cc1NC(=O)c1ccccc1C(F)(F)F`, the inhibition is, setting by setting: (Thailand/16681/1984, Concentration 49.5 uM, Number of replicates 2.0, Standard deviation 0.3615954096842132 %) -0.036%; (Thailand/16681/1984, Concentration 99.01 uM, Number of replicates 2.0, Standard deviation 5.6696304765625785 %) 2.81%; (Thailand/16681/1984, Concentration 198.0 uM, Number of replicates 2.0, Standard deviation 0.11218732430326796 %) -0.957%.

Take `CC(C)(CO)NC(=O)c1cc(Cl)cc(NC(=O)c2cnc(-c3ccc(Cl)cc3)[nH]2)c1`: the inhibition is 3.86% (Thailand/16681/1984, Concentration 49.5 uM, Number of replicates 2.0, Standard deviation 0.4056359371721259 %); 8.39% (Thailand/16681/1984, Concentration 99.01 uM, Number of replicates 2.0, Standard deviation 1.3045248718369469 %); 13.4% (Thailand/16681/1984, Concentration 198.0 uM, Number of replicates 2.0, Standard deviation 1.1566416956558625 %).

As to `Cc1cnccc1NC(=O)CCCn1c(=O)oc2ccccc21`, the inhibition was -1.7% (Thailand/16681/1984, Concentration 49.5 uM, Number of replicates 2.0, Standard deviation 0.2250312122126386 %); -2.49% (Thailand/16681/1984, Concentration 99.01 uM, Number of replicates 2.0, Standard deviation 1.6434097261555802 %); -1.81% (Thailand/16681/1984, Concentration 198.0 uM, Number of replicates 2.0, Standard deviation 0.5817239529640948 %).

As to `CCCC[C@H](NC(C)=O)C(=O)N[C@H](C(=O)NCc1ccc(CN)cc1)c1ccc(OCc2ccccc2)cc1`, the inhibition is, setting by setting: (Thailand/16681/1984, Concentration 49.5 uM, Number of replicates 2.0, Standard deviation 1.556187076043376 %) -3.73%; (Thailand/16681/1984, Concentration 99.01 uM, Number of replicates 2.0, Standard deviation 1.4164928639405643 %) 9.94%; (Thailand/16681/1984, Concentration 198.0 uM, Number of replicates 2.0, Standard deviation 0.0753329398535839 %) 99.6%.

Turning to `c1cc(CN2CCC(c3c[nH]c4cccnc34)CC2)c2cn[nH]c2c1`, the inhibition is, setting by setting: (Thailand/16681/1984, Concentration 49.5 uM, Number of replicates 2.0, Standard deviation 2.4318292420624372 %) -3.58%; (Thailand/16681/1984, Concentration 99.01 uM, Number of replicates 2.0, Standard deviation 2.156937991960047 %) -1.91%; (Thailand/16681/1984, Concentration 198.0 uM, Number of replicates 2.0, Standard deviation 1.6889834084783495 %) 0.616%.

With `O=Cc1ccc(N2CCC(C(=O)NCc3c(Cl)cccc3Cl)CC2)cc1`, under setting [1], the inhibition was found to be 10.1%.

With `Cn1cc(CNC(=O)c2ccccc2[C@@H]2CCCCN2)cn1`, the inhibition reads like this: (Thailand/16681/1984, Concentration 49.5 uM, Number of replicates 2.0, Standard deviation 1.3250088302691205 %) -2.36%; (Thailand/16681/1984, Concentration 99.01 uM, Number of replicates 2.0, Standard deviation 0.6184423716804828 %) -1.37%; (Thailand/16681/1984, Concentration 198.0 uM, Number of replicates 2.0, Standard deviation 0.12536703369097324 %) -0.243%.

As for `CN1CCN(c2ccc(CNS(=O)(=O)c3ccc(C(N)=O)cc3)cc2)CC1`, the inhibition runs as follows: (Thailand/16681/1984, Concentration 49.5 uM, Number of replicates 2.0, Standard deviation 20.119100919634967 %) 3.83%; (Thailand/16681/1984, Concentration 99.01 uM, Number of replicates 2.0, Standard deviation 1.1600630082305827 %) -8.14%; (Thailand/16681/1984, Concentration 198.0 uM, Number of replicates 2.0, Standard deviation 11.722555520251234 %) 2.42%.

As for `O=S1(=O)CCC(CN2CC[C@H](c3c[nH]c4ccccc34)C2)CC1`, the inhibition runs as follows: (Thailand/16681/1984, Concentration 49.5 uM, Number of replicates 2.0, Standard deviation 2.0792070439401633 %) -2.27%; (Thailand/16681/1984, Concentration 99.01 uM, Number of replicates 2.0, Standard deviation 2.2961386855402206 %) -2.06%; (Thailand/16681/1984, Concentration 198.0 uM, Number of replicates 2.0, Standard deviation 2.402459073700363 %) -1.62%.

For `Cn1cc(NC(=O)c2cccc3ncccc23)cn1`, the inhibition is, setting by setting: (Thailand/16681/1984, Concentration 49.5 uM, Number of replicates 2.0, Standard deviation 0.5748440700005705 %) -2.32%; (Thailand/16681/1984, Concentration 99.01 uM, Number of replicates 2.0, Standard deviation 0.0176162025657954 %) -1.95%; (Thailand/16681/1984, Concentration 198.0 uM, Number of replicates 2.0, Standard deviation 0.5757711320804162 %) -1.7%.

As to `Cc1cc(CO)c2cccc(C[C@H](NC(=O)[C@@H](N)CC(N)=O)C(=O)O)c2n1`, the inhibition by setting is: (Thailand/16681/1984, Concentration 49.95 uM, Number of replicates 2.0, Standard deviation 0.5965579577659891 %) 9.31%; (Thailand/16681/1984, Concentration 99.9 uM, Number of replicates 2.0, Standard deviation 0.16349605474346013 %) 25.5%.

Turning to `CNC(=O)c1cc(Cl)ccc1NS(=O)(=O)c1cc(Cl)cc(C(=O)NC)c1OC`, the inhibition is, setting by setting: (Thailand/16681/1984, Concentration 49.5 uM, Number of replicates 2.0, Standard deviation 3.5107220562143744 %) -1.24%; (Thailand/16681/1984, Concentration 99.01 uM, Number of replicates 2.0, Standard deviation 4.644293157051252 %) 1.93%; (Thailand/16681/1984, Concentration 198.0 uM, Number of replicates 2.0, Standard deviation 3.3165321375743706 %) 8.2%.

On to `COc1cc(C(=O)NCCO)nc(N2CCNCC2)n1`, for which the inhibition by setting is: (Thailand/16681/1984, Concentration 49.5 uM, Number of replicates 2.0, Standard deviation 3.6618233971603567 %) -4.83%; (Thailand/16681/1984, Concentration 99.01 uM, Number of replicates 2.0, Standard deviation 2.7372142638980654 %) -4.02%; (Thailand/16681/1984, Concentration 198.0 uM, Number of replicates 2.0, Standard deviation 2.6691447011826064 %) 1.2%.

As for `Cc1[nH]c(C#N)cc1C(=O)N(C)C1CCN(C(=O)c2ccc3c(C)n[nH]c3c2)CC1`, the inhibition runs as follows: (Thailand/16681/1984, Concentration 49.5 uM, Number of replicates 2.0, Standard deviation 1.0210106926305917 %) -1.72%; (Thailand/16681/1984, Concentration 99.01 uM, Number of replicates 2.0, Standard deviation 1.3721862423245779 %) -1.37%; (Thailand/16681/1984, Concentration 198.0 uM, Number of replicates 2.0, Standard deviation 0.14252962553131407 %) -0.212%.

In the case of `Cc1cc(CO)c2cccc(CC(=O)N3C[C@H](O)C[C@H]3C(=O)O)c2n1`, the inhibition runs as follows: (Thailand/16681/1984, Concentration 49.95 uM, Number of replicates 2.0, Standard deviation 0.2659010955073496 %) -4.6%; (Thailand/16681/1984, Concentration 99.9 uM, Number of replicates 2.0, Standard deviation 0.3535766978005003 %) -0.828%.

Take `Cn1cc(NC(=O)c2ccccc2C(F)(F)F)c(-c2ccc(N)nc2)n1`: the inhibition reads like this: (Thailand/16681/1984, Concentration 49.5 uM, Number of replicates 2.0, Standard deviation 0.02318042950620363 %) -3.62%; (Thailand/16681/1984, Concentration 99.01 uM, Number of replicates 2.0, Standard deviation 0.5795125921164253 %) -3.54%; (Thailand/16681/1984, Concentration 198.0 uM, Number of replicates 2.0, Standard deviation 2.685074924440845 %) -2.16%.

As to `Cc1cc(CO)c2cccc(C[C@H](NC(=O)Cc3c(C)c4c(=O)[nH]n(C)c4[nH]c3=O)C(=O)O)c2n1`, the inhibition (Thailand/16681/1984, Concentration 49.95 uM, Number of replicates 2.0, Standard deviation 0.9775980056715216 %) was found to be 2.52% and the inhibition (Thailand/16681/1984, Concentration 99.9 uM, Number of replicates 2.0, Standard deviation 0.5749383103538409 %) turned out to be 7.17%.

For the compound `O=Cc1ccc(N2CCC(C(=O)N3CCC[C@H]3c3cccc(F)c3)CC2)cc1`, the inhibition under setting [1] was 13.9%.

For `NCc1cccc(NC(=O)[C@@H](Cc2ccc(O)cc2)NC(=O)OCc2ccccc2)c1`, the inhibition is -2.95% (Thailand/16681/1984, Concentration 49.5 uM, Number of replicates 2.0, Standard deviation 0.05643935060312033 %); -2.21% (Thailand/16681/1984, Concentration 99.01 uM, Number of replicates 2.0, Standard deviation 0.226235853436777 %); -1% (Thailand/16681/1984, Concentration 198.0 uM, Number of replicates 2.0, Standard deviation 0.3792919652166946 %).

For the origin of these results see ChEMBL document CHEMBL5606460, “ASAP - DENV-2 NS2B-NS3 protease fluorescence single point” (2024).
